# Data from PubChem BioAssay AID2675 (National Center for Advancing Translational Sciences (NCATS), 2010).
# Screen size: about 280,000 compounds; about 100 (0.036%) were called active. This list was built around the results that the source calls inconclusive (neither active nor inactive); the mix of calls is not that of the screen. Calls follow the shape of the dose curve; as a rule, active = well fitted inhibition curve with a large enough effect in the signal ratio, with a control signal flat (not every such curve was filed as active); inconclusive = small, poorly fitted or top-dose-only effect, or effect the other way, or a change in a side signal; inactive = no such curve, though single readings can be large or run the other way; the % refers to the signal ratio. Potencies beside an inconclusive call are fits to weak or partial responses and may not hold up. A note “side channel” means that the fit belongs to a control or component signal, not to the main read-out.
# Biological target: Muscleblind-like protein 1 (Homo sapiens) (UniProt Q9NR56)
# Sequence of UniProt Q9NR56 (Q9NR56 whole entry, looked up): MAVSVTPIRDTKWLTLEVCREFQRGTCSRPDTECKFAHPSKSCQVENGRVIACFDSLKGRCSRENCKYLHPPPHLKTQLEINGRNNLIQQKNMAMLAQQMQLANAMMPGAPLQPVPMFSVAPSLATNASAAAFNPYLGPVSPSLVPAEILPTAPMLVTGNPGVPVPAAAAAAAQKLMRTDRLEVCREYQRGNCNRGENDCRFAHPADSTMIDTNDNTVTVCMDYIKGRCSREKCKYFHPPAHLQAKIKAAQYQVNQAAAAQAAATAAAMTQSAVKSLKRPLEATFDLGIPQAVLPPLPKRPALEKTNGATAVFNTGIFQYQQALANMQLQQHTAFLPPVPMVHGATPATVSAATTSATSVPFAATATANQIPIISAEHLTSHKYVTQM
# Test: qHTS Assay for Inhibitors of MBNL1-poly(CUG) RNA binding
# Details: TR-FRET MBNL1-His/biotin-(CUG)12 binding, 665/545 ratio; activity change, negative = inhibition: at 57.5 µM (top of the series)
# Procedure, shortened: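 TR-FRET between His-tagged MBNL1 and biotin-(CUG)12 RNA, detected with Tb anti-His antibody (0.055 ng/ul) and streptavidin-XL665 (5 nM), 60 min at room temperature. Compounds titrated 92 nM to 58 uM; 665/545 nm ratio normalized to buffer and complex controls.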
# % is scaled to controls: 0 for no effect and ±100 for the full control effect; potency is read from the fitted curve at half-maximal effect; tags tell the direction and shape of the fitted curve or compound fluorescence and quenching.
SMILES,Potency,"activity change, negative = inhibition"
CC[n+]1ccc(C)c2cc(S(=O)C(F)(F)F)ccc21 (stereo not given),"inconclusive: 12.6 µM [quencher, side channel, partial curve]",–
CCCCn1c(CCC)nc([N+](=O)[O-])c1Sc1ccc(Cl)cn1,"inconclusive: 39.8 µM [quencher, side channel, single point]",–
CSc1nccn1CC(=O)Nc1ccc(F)cc1,–,inactive: -7.46%
Cc1nc2ccc3nc(NC(=O)c4ccc5c(c4)OCCO5)sc3c2s1,"inconclusive: 25.1 µM [fluorescent, side channel, single point]",–
CC(N)=Nc1ccc([N+](=O)[O-])cc1,"inconclusive: 17.8 µM [quencher, side channel, partial curve]",–
Cc1ccc(OCC(=O)N(Cc2ccccc2)C2CCS(=O)(=O)C2)c([N+](=O)[O-])n1 (stereo not given),"inconclusive: 14.1 µM [quencher, side channel, partial curve]",–
NS(=O)(=O)c1ccc(Nc2ccccc2)c([N+](=O)[O-])c1,"inconclusive: 10 µM [quencher, side channel, partial curve]",–
CCS(=O)(=O)NC(C)C(c1cccs1)N1CCN(c2ccc(F)cc2)CC1 (stereo not given),"inconclusive: 7.08 µM [quencher, side channel, full curve, poor fit]",–
CC(=O)OCC[n+]1c(C)n(-c2ccccc2)c2ccc(Cl)cc21,–,inactive: -1.8%
N#Cc1c(NC(=O)/C=C/C(=O)O)sc2c1CCN(Cc1ccccc1)C2,–,inactive: 19.8%
CC(C)(C)n1nc2c(c1NC(=O)c1ccc(Cl)c([N+](=O)[O-])c1)CS(=O)(=O)C2,"inconclusive: 17.8 µM [quencher, side channel, partial curve]",–
CN(CC1CCCN(CCc2cccc(C(F)(F)F)c2)C1)C(=O)c1ccco1 (stereo not given),–,inactive: -5.93%
COCCOC(=O)C(C#N)c1nc2ccccc2nc1N1CCN(Cc2ccccc2)CC1 (stereo not given),"inconclusive: 28.2 µM [quencher, side channel, partial curve]",–
O=C(c1ccccc1)N1CCN(c2ccc([N+](=O)[O-])c(NCc3ccco3)c2)CC1,"inconclusive: 17.8 µM [quencher, side channel, partial curve]",–
Cc1ccc(NC(=O)CCS(=O)(=O)c2ccc3nc(C)sc3c2)cc1,–,inactive: 1.62%
CN1C(=O)c2ccc(NC(=S)NC(=O)C(C)(C)C)cc2C1=O,"inconclusive: 25.1 µM [quencher, side channel, partial curve]",–
COC(=O)C(Cc1cnc(Cl)s1)(C(=O)OC)c1ccc([N+](=O)[O-])cc1,"inconclusive: 17.8 µM [quencher, side channel, single point]",–
COC(=O)c1ccc(NC(=O)c2nc(S(=O)(=O)Cc3cccc(C)c3)ncc2Cl)cc1,"inconclusive: 12.6 µM [quencher, side channel, partial curve]",–
CC1(C)OC(=O)C(=Cc2ccc(-c3ccc(S(N)(=O)=O)cc3)o2)C(=O)O1,"inconclusive: 20 µM [quencher, side channel, partial curve]",–
CCNC(=S)N/N=C(\C)c1cccc([N+](=O)[O-])c1,"inconclusive: 8.91 µM [quencher, side channel, partial curve, poor fit]",–

SMILES,Potency,"activity change, negative = inhibition"
COc1ccc(-c2cc(C(F)F)n3ncc(C(=O)N4CCCCC4)c3n2)cc1,"inconclusive: 14.1 µM [quencher, side channel, partial curve]",–
CN1C(=S)SC(/[N+]([O-])=C\c2ccccc2)C1(C)C (stereo not given),"inconclusive: 31.6 µM [quencher, side channel, single point]",–
Cc1ccc(S(=O)(=O)NNC(=S)Nc2c(Cl)cccc2Cl)cc1,–,inactive: -6.47%
CCNC(=S)N1CCN(c2ccccn2)CC1,–,inactive: -5.32%
CC(=O)Oc1ccc2nc(/C=C/c3ccccc3)oc(=O)c2c1,"inconclusive: 28.2 µM [quencher, side channel, partial curve]",–
CSc1nc(Oc2ccccc2)c2sccc2n1,"inconclusive: 0.447 µM [quencher, side channel, full curve, poor fit]",–
CCn1cc(CNC(=S)Nc2cccc3ccccc23)cn1,"inconclusive: 28.2 µM [quencher, side channel, partial curve]",–
CCOC(=O)Cc1nnc(NC(=O)CSc2nnc3c4ccccc4n(C)c3n2)s1,"inconclusive: 28.2 µM [quencher, single point]",–
Cc1nc(N2C(=O)C(=O)/C(=C(/O)c3ccccc3)C2c2ccco2)sc1C (stereo not given),"inconclusive: 39.8 µM [quencher, side channel, single point]",–
Cc1cc(C)c(C(=O)O)c(CC(C)(C)C(=O)O)c1,"inconclusive: 126 µM [inhibitor, partial curve]",–
Cc1nn(-c2ccccc2)c2sc(C(=O)NC3CCCCC3)cc12,–,inactive: 5.33%
O=C(CNC(=O)c1ccc(Br)o1)NCc1ccccc1,–,inactive: -2.91%
CN(C)CCNC(=O)c1cc2c(s1)-c1ccc(Cl)cc1SC2,"inconclusive: 28.2 µM [quencher, side channel, single point]",–
CCS(=O)(=O)Nc1ccc(C2=NN(C(=O)c3ccco3)C(c3cccc(F)c3)C2)cc1 (stereo not given),"inconclusive: 35.5 µM [quencher, side channel, single point]",–
NC1=NC2(CCN(Cc3ccccc3)CC2)n2c(nc3ccccc32)N1,"inconclusive: 3.55 µM [fluorescent, side channel, partial curve, poor fit]",–
COc1cc(C2/C(=C(/O)c3ccc(F)cc3)C(=O)C(=O)N2CCCC(=O)O)ccc1O (stereo not given),–,inactive: 2.4%
Cn1nc(-c2ccc(Cl)cc2)c2cc(C(=O)NCC3CCCO3)sc21 (stereo not given),–,inactive: -2.2%
CN(C#N)c1nccc(-c2cccs2)n1,–,inactive: 18.4%
CCc1ccc2[nH]c3nc(SCC(=O)NCC4CCCO4)nnc3c2c1 (stereo not given),"inconclusive: 3.16 µM [quencher, side channel, full curve, poor fit]",–
CCOC(=O)C(=O)/C(=C\N(C)C)c1onc(-c2ccccc2)c1C(=O)OC,"inconclusive: 5.01 µM [quencher, side channel, single point]",–
